# Measured values taken from PubChem BioAssay AID1508642 (National Center for Advancing Translational Sciences (NCATS), 2021).
# Among all 43,000 compounds or so, about 200 (0.47%) were called active. About 12% were inconclusive and are not listed. Calls follow the shape of the dose curve; as a rule, active = well fitted cell-killing curve with a large enough effect; inconclusive = small, poorly fitted or top-dose-only effect, or effect the other way; inactive = flat fitted curve, though single readings scatter. This is one part of the list.
# Assay: Cell viability qHTS assay in S16 Pmp22-F2sN cells; also: nearly all actives have a fitted effect of over 65% in size
# Details: S16 Pmp22-F2sN Schwann cells viability, CellTiter-Glo, 24 h; series mostly up to 57.5 µM; activity change, negative = cytotoxicity: at the top concentration
# Outline: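 S16 Pmp22-F2sN Schwann cells (500-1,000/well) in phenol-red-free DMEM with 10% FBS received 23 nL compound by pin tool for 24 h at 37 °C. Viability was then read as CellTiter-Glo luminescence after 15 min at room temperature.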
# % is scaled to controls: 0 for no effect and ±100 for the full control effect.
row,Structure (SMILES),"activity change, negative = cytotoxicity"
1,CN(Cc1ccccc1)Cc1c(O)ccc2c(=O)c(-c3ccccc3)c(C(F)(F)F)oc12,inactive: -2.24%
2,Cc1ccc(NC(=O)CN2c3ccccc3S(=O)(=O)c3ccccc32)cc1F,inactive: 19.9%
3,CCN(C(=O)c1sc2cc(OC)ccc2c1Cl)c1ccccc1,inactive: -18.2%
4,COc1ccccc1OCCCCn1c(C2CC(=O)N(c3ccccc3Cl)C2)nc2ccccc21 (stereo not drawn),inactive: -5.88%
5,Cc1ccc(NC(=O)/C(C#N)=C/c2ccccc2Cl)cc1C,inactive: -29.1%
6,CCN(CC)CCNC(=O)CN1C(=O)c2cccnc2Oc2ccc(C)cc21,inactive: -1.81%
7,COc1ccc(CCNC(=O)Cn2c(=O)n(-c3ccc(OC)c(OC)c3)c(=O)c3ccccc32)cc1OC,inactive: -8.79%
8,O=C(NCc1ccc(F)cc1)C1CCN(S(=O)(=O)c2ccc3c(c2)CCCN3C(=O)C2CCC2)CC1,inactive: -14.2%
9,CN(C)c1ccc(NC(=O)CSc2nc(-c3ccco3)cc(C(F)(F)F)n2)cc1,inactive: 12%
10,O=C(COc1ccccc1Cl)N(Cc1ccco1)Cc1ccco1,inactive: -2.08%
11,Cc1ccccc1C(=O)Oc1cc(-c2ccc3c(c2)OCO3)cc(=O)c2c(C)oc(C)c12,inactive: -18.6%
12,Cc1ccc(N2CCN(C(=O)c3ccc(Nc4nc5ccccc5n5nnnc45)cc3)CC2)c(C)c1,inactive: -24.4%
13,COc1ccccc1N1CCN(S(=O)(=O)c2c(C)sc3ncn(CC(=O)Nc4ccc(C(C)C)cc4)c(=O)c23)CC1,inactive: -2.94%
14,CC1CCN(CCCNC(=O)CN2C(=O)CSc3ccc(S(=O)(=O)N4CCC(C)CC4)cc32)CC1,inactive: -3.71%
15,Cc1ccc(Cl)cc1NC(=O)c1cc2c(=O)n3cccc(C)c3nc2n1C,inactive: 0.793%
16,Cc1ccc(S(=O)(=O)c2cnc(SCC(=O)Nc3ccccc3C(F)(F)F)[nH]c2=O)cc1C,inactive: -7.22%
17,O=C(NCc1ccc(F)cc1)c1cnc(N2CCOCC2)c2ccccc12,inactive: 3.04%
18,Cc1cc(C)cc(NC(=O)C2CCCN(c3cnccn3)C2)c1 (stereo not drawn),inactive: -0.356%
19,CCOc1ccc(NC(=O)N2CCC(CN3CCC(C)CC3)CC2)cc1,inactive: -5.23%
20,COc1ccc(-c2cc(C(=O)NCCc3ccc(Cl)cc3)[nH]n2)cc1,inactive: 6.76%
21,Cc1ccccc1-c1nc2c3c(-c4ccccc4)c(-c4ccccc4)oc3ncn2n1,inactive: 16.1%
22,Cc1cccc(N2CCN(C(=O)COCc3cc(-c4ccc5c(c4)OCO5)on3)CC2)c1C,inactive: 2.35%
23,CCOC(=O)c1[nH]c2ccccc2c1NC(=O)c1cc(OC)cc(OC)c1,inactive: -0.175%
24,Cc1ccc(CNc2nc3c(c(=O)n(C)c(=O)n3C)n2Cc2ccc(Cl)cc2)cc1,inactive: 8.79%

row,Structure (SMILES),"activity change, negative = cytotoxicity"
1,Cc1ccc(CN(C(=O)c2ccc(F)cc2)c2ccccn2)o1,inactive: 11%
2,CCn1c(=O)n(-c2ccc(F)c(Cl)c2)c(=O)c2sc3ccccc3c21,inactive: 5.87%
3,COC(=O)c1ccccc1NC(=O)COCc1cc(-c2cccs2)on1,inactive: 5.66%
4,COc1cccc(-n2ccn(CC(=O)Nc3ccccc3F)c(=O)c2=O)c1,inactive: 7.99%
5,COc1ccc2c(c1)c(CC(=O)Nc1cccc(F)c1C)c(C)n2C(=O)c1ccc(Cl)cc1,inactive: 1.43%
6,O=C(Nc1ccc(F)c(F)c1)c1cc(S(=O)(=O)N2CCc3ccccc32)ccc1F,inactive: -5.59%
7,Cc1ccc(CNC(=O)CSCc2nc(-c3ccc(Cl)cc3)oc2C)cc1,inactive: 3.06%
8,CCc1ccccc1NC(=O)Cn1cc(C(=O)c2ccc(Cl)cc2)c(=O)c2ccc(C)nc21,inactive: 1.3%
9,Cc1ccc(CNS(=O)(=O)c2cc(C(=O)Nc3ccc(C(C)C)cc3)ccc2F)cc1,inactive: -21.6%
10,COc1ccc(C2=C(C)C(N3CCC(C(=O)NCc4ccco4)CC3)=NS2(=O)=O)cc1,inactive: 3.81%
11,COCCCNC(=O)CSc1nc2cc3c(cc2c(=O)n1CCCCCC(=O)NCCc1ccc(OC)c(OC)c1)OCO3,inactive: 3.34%
12,CCc1nn2c(=O)cc(COC(=O)c3cccc(NC(=O)c4ccccc4C)c3)nc2s1,inactive: 4.34%
13,COc1ccc2c(CNC3CCCC3)c(C(=O)O)n(Cc3ccccc3C)c2c1,inactive: 1.17%
14,Cc1ccccc1NC(=O)CN1C(=O)C2(SCC(=O)N2c2ccc(F)cc2)c2ccccc21 (stereo not drawn),inactive: -11.1%
15,Cc1cc(C)c2c(=O)cc(C(=O)Nc3sc4c(c3C#N)CCCC4)oc2c1,inactive: 8.3%
16,O=C(NCc1ccc(F)cc1)c1ccc2c(c1)N(Cc1c(F)cccc1Cl)C(=O)CS2,inactive: 14.4%
17,CC1=C(c2ccc(C)cc2)S(=O)(=O)N(Cc2ccc(C(=O)NCc3ccccc3)cc2)C1=O,inactive: 1.45%
18,Cc1ccc(C(=O)Nc2nnc(S(=O)(=O)N(C)Cc3ccco3)s2)cc1,inactive: 0.912%
19,CCn1cc(C(=O)NCCc2ccc(OC)c(OC)c2)c(=O)c2cc(S(=O)(=O)N3CCOCC3)ccc21,inactive: 1.59%
20,CC1CCN(S(=O)(=O)c2ccc3c(ccn3CC(=O)NCc3ccccc3F)c2)CC1,inactive: -7.52%
21,Cc1cccc(-n2nnc(-c3nc(-c4ccccc4)no3)c2N)c1C,inactive: -11.3%
22,Cc1ccc(C)c(NC(=O)CN2CCN(C3CCCCC3)C(=O)C2=O)c1,inactive: 3%
23,COc1cccc(CNC(=O)c2ccc3c(c2)nc2n3CCOC2)c1OC,inactive: 2.51%
24,Cc1ccc(-c2noc(C(C)NC(=O)c3ccco3)n2)cc1 (stereo not drawn),inactive: -26.5%

row,Structure (SMILES),"activity change, negative = cytotoxicity"
1,CCc1nc2c(cnn2-c2ccc(C)cc2)c(=O)n1-c1ccc(C)cc1,inactive: 0.0066%
2,COc1ccc(-c2nc(SCC(=O)NCC3CCCO3)c(-c3ccc(C)cc3)[nH]2)cc1OC (stereo not drawn),inactive: 1.87%
3,COc1ccc(C)cc1NS(=O)(=O)c1ccc2c(c1)CCCN2C(C)=O,inactive: 1.61%
4,COc1ccc(-c2c(C#N)c(SCC(=O)Nc3ccc(C)c(C)c3)nc(C)c2C(=O)Nc2ccccc2)cc1OC,inactive: -0.579%
5,Cc1ccc(N(C)S(=O)(=O)c2nnc(NC(=O)c3ccco3)s2)cc1,inactive: 4.08%
6,COc1ccc(NC(=O)N2CCN(Cc3nc4ccc(C)cc4o3)CC2)cc1OC,inactive: -1.61%
7,CCCCNC(=O)CN1CCN(c2ccc(NC(=O)c3ccc(OC)cc3)cc2C(=O)O)CC1,inactive: 1.46%
8,O=C(NCc1ccc(Cl)cc1)c1cc2cccc3c2n1CCS3,inactive: 1.13%
9,COc1ccc(CNC(=O)C2CCN(C(=O)N3CCOc4ccc(C)cc43)CC2)cc1,inactive: -17.2%
10,Cc1cccc(NC(=O)Cn2c(=O)n(Cc3nc(-c4ccccc4)no3)c(=O)c3ccccc32)c1,inactive: -18.6%
11,COC(=O)c1sccc1S(=O)(=O)N(CC(=O)NCc1ccc(F)cc1)c1ccccc1,inactive: 12.4%
12,Cc1cccc(-n2c(=O)c3c(c4cc(C)ccc4n3C)n(CC(=O)Nc3ccc(C)c(C)c3)c2=O)c1,inactive: 8.16%
13,CC(C)(C)NC(=O)Cn1cc(S(=O)(=O)Cc2ccccc2Cl)c2ccccc21,inactive: -1.17%
14,COc1ccccc1N1CCN(c2c3c(nc4nncn24)CCC3)CC1,inactive: -19.5%
15,CC1CCN(S(=O)(=O)c2ccc3c(c2)N(CC(=O)N(C)Cc2ccccc2)C(=O)CO3)CC1,inactive: 3.84%
16,Cn1cnc(S(=O)(=O)N2CCC(C(=O)Nc3ccc(OC(F)(F)F)cc3)CC2)c1,inactive: 4.44%
17,O=C(CCCc1nc(-c2ccc(Cl)cc2)no1)NCc1ccco1,inactive: 5.2%
18,CCCCN1C(C(=O)c2ccccc2)=C(OC(=O)CC)c2ccccc2S1(=O)=O,inactive: -27.6%
19,COc1cc(C2c3c(-c4ccccc4O)n[nH]c3C(=O)N2Cc2ccncc2)cc(OC)c1OC (stereo not drawn),inactive: 5.56%
20,Cc1ccccc1CN1C(=O)C(O)(c2c[nH]c3ccccc23)c2cc(Cl)ccc21 (stereo not drawn),inactive: 1.33%
21,COc1cccc(CNC(=O)C2CCCN(c3nn4cc(-c5ccc(C)cc5)nc4s3)C2)c1 (stereo not drawn),inactive: 6.97%
22,O=c1c2sc3ccccc3c2n(Cc2cccc(Cl)c2)c(=O)n1Cc1ccc(F)cc1,inactive: 2.59%
23,O=C(c1ccc2c(c1)N(Cc1ccccc1)C(=O)c1ccccc1S2(=O)=O)N1CCC(Cc2ccccc2)CC1,inactive: 7.17%
24,Cc1cc(C)c(NC(=O)Cn2nnc3sc4c(c3c2=O)CCC(C(C)(C)C)C4)c(C)c1 (stereo not drawn),inactive: 9.08%

row,Structure (SMILES),"activity change, negative = cytotoxicity"
1,Cc1nnc(N2CCCC(C(=O)Nc3cc(F)ccc3F)C2)c2nn(-c3ccccc3)c(C)c12 (stereo not drawn),inactive: -2%
2,CC1CCN(c2nc3ccccc3nc2SCC(=O)Nc2ccccc2C(C)C)CC1,inactive: -3.29%
3,O=C(NC1(C(F)(F)F)N=C(c2ccccc2)N(Cc2ccccc2)C1=O)c1ccc(F)cc1 (stereo not drawn),inactive: -28.5%
4,CCOc1ccc(CCNC(=O)c2cc3n(n2)CCCN(Cc2ccc(C)cc2)C3=O)cc1OCC,inactive: -10.2%
5,Cc1cc(-c2ccc(C)c(S(=O)(=O)Nc3ccc(C)c(N(C)C)c3)c2)on1,inactive: -26%
6,O=C(CS(=O)(=O)c1cccc2nsnc12)N1CCN(c2ccc(F)cc2)CC1,inactive: -2.48%
7,CC(=O)c1ccc(NC(=O)Cn2c(=O)nc(-c3ccccc3)c3ccccc32)cc1,inactive: 4.66%
8,COc1cc(NC(=O)COCc2cc(-c3ccc4c(c3)OCO4)on2)c(OC)cc1Cl,inactive: 7.36%
9,CCOc1ccc(C(=O)c2cn(CC(=O)Nc3ccc(C)c(Cl)c3)c3ccc(OCC)cc3c2=O)cc1,inactive: -2.54%
10,CCCCC(=O)OCc1cc(=O)n2nc(C3CC3)sc2n1,inactive: 29.9%
11,COc1ccc(-c2nc(CSCC(=O)NCCc3ccc(OC)c(OC)c3)c(C)o2)cc1,inactive: -23.5%
12,Cc1sc(NC(=O)C2c3ccccc3Oc3ccccc32)c(C(=O)OC(C)C)c1C,inactive: 2.98%
13,CC(C)NC(=O)C1=CC(c2ccc3c(c2)OCO3)=NS(=O)(=O)N1C,inactive: -4.26%
14,COc1ccccc1CNC(=O)c1cc2cccc3c2n1CCS3,inactive: -0.124%
15,CCCSc1ncc(Cl)c(C(=O)NCc2ccc(C)cc2)n1,inactive: -1.02%
16,COc1ccc(CNC(=O)CCS(=O)(=O)c2cc3c4c(c2)CCN4C(=O)CC3)cc1OC,inactive: -20.2%
17,Cc1c(C(=O)N2CCCC2)oc2c1-c1nn(CC(=O)NCc3ccccc3F)cc1CC2,inactive: -18.5%
18,COc1ccc(C2C(C(=O)Nc3cccnc3)=C(C)Nc3nc(-c4ccc(OC)c(OC)c4)nn32)cc1 (stereo not drawn),inactive: -5.73%
19,COc1ccc2c(c1)c(=O)c(S(=O)(=O)c1ccc(F)cc1)cn2CC(=O)Nc1ccc(C)cc1C,inactive: 13.5%
20,COc1ccc(CN(C(=O)Nc2cc(C)ccc2C)C2CCN(C(C)=O)CC2)cc1,inactive: -3.29%
21,COc1cc(NS(=O)(=O)c2ccc(NC(=O)COc3ccc(Cl)cc3Cl)cc2)nc(OC)n1,inactive: 18.8%
